About 450 (0.94%) of roughly 48,000 compounds were called active. Another 19% or so got no clear call; they are omitted. The call rests on the fitted dose curve; in most records, active means well fitted inhibition curve with a large enough effect; inconclusive means small, poorly fitted or top-dose-only effect; inactive means no such curve, though single readings can be large or run the other way. This is one part of the list.
Assay: Primary qHTS for Identification of Small Molecule Inhibitors of Huntingtin Promoter Activity; further: nearly all actives have a fitted effect of over 50% in size
Conditions: HEK293 HTT promoter firefly luciferase reporter (activity 0% = vehicle and -100% = no light), 24 h; series mostly up to 57.5 µM; activity change, negative = inhibition: at the top concentration
Summary of the method: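 HEK293 Fluc reporter, 2,500 cells/well, 24 h pre-culture; cpds up to 57.5 uM final, 24 h 37 degrees C; Dual-Glo, 10 min RT; normalized vehicle = 0%, zero RLU = -100%.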
Potency means the concentration at half of the fitted maximal effect.

SMILES | activity change, negative = inhibition | Potency
Cc1cccc(CCn2c(=O)c3ccccc3n(Cc3ccccc3C)c2=O)c1 | inactive: -3.06% | –
COc1ccc2c(c1)c1c(c(=O)n(Cc3ccccc3)c(=O)n1CC(=O)Nc1ccccc1F)n2C | inactive: -11.1% | –
CCOc1ccccc1NC(=O)N1CC(C)Oc2ccc(Cl)cc21 (stereo unspecified) | inactive: -23.9% | –
Cc1ccc(OC(=O)CSc2nnc(-c3ccc4c(c3)OCO4)o2)c(C)c1 | inactive: -22.9% | –
Cc1cccn2c(=O)cc(COc3ccc(NC(=O)COc4ccc(F)cc4)cc3)nc12 | inactive: -5.68% | –
CNC(=O)C1CCCN(c2nnc(C)c3c(C)n(-c4ccccc4)nc23)C1 (stereo unspecified) | inactive: -5.97% | –
O=C(O)CCc1ccc(-c2ccc(Br)cc2)n1-c1ccccc1O | inactive: -7.48% | –
CCOC(=O)C1CCN(c2cc3c(cc2NC(=O)c2ccccc2Cl)n(C)c(=O)n3C)CC1 | inactive: -20.9% | –
CCCCN(CC)CCNC(=O)Cn1cnc2sc(C)c(S(=O)(=O)N3CCN(c4ccccc4OC)CC3)c2c1=O | inactive: -19.5% | –
CCOc1ccc(N2CC(c3nc4ccccc4n3CCOc3ccc(OC)cc3)CC2=O)cc1 (stereo unspecified) | inactive: -25.3% | –
CCOc1ccc2nc(N3CCCC(C(=O)NCCc4ccc(OC)cc4OC)C3)sc2c1 (stereo unspecified) | inactive: -9.01% | –
Cc1cc2nc(-c3ccc(NC(=O)c4ccc(OCC(C)C)cc4)cc3)oc2cc1C | inactive: 1.63% | –
CCOc1cccc2sc(N(Cc3cccnc3)C(C)=O)nc12 | inactive: -29% | –
O=C(NCCc1ccccc1)c1ccc(CSc2nc3cccnc3n2Cc2ccccc2)cc1 | inactive: -24.8% | –
CC(C)CN(c1ccccc1)S(=O)(=O)c1nnc(NC(=O)C2CCCCC2)s1 | inactive: -5.02% | –
O=C(NCCO)C(=O)NCC(c1ccc2c(c1)OCO2)N1CCOCC1 (stereo unspecified) | inactive: 4.12% | –
COc1ccc(/C=C/c2nc(C#N)c(N3CCC(C(N)=O)CC3)o2)cc1OC | inactive: 6.7% | –
O=C(CCS(=O)(=O)c1ccccc1)N(Cc1cccnc1)c1nc2c(F)cccc2s1 | inactive: 14.7% | –
COc1ccc(C(CC(=O)Nc2ccccn2)N2Cc3ccccc3C2=O)cc1OC (stereo unspecified) | inactive: -15.9% | –
CCc1ccccc1NC(=O)Cn1nnc(C(=O)NCc2ccco2)c1N | inactive: -17.9% | –
CCOC(=O)c1nnc2c(-c3ccc(Cl)cc3)c(C)nn2c1N | inactive: -7.89% | –

SMILES | activity change, negative = inhibition | Potency
CC(=O)Nc1ccc(NC(=O)c2csnn2)cc1 | inactive: 31.4% | –
COCCN1C(=O)N(c2cccc(OC)c2)C(=O)C1CC(=O)Nc1ccccc1 (stereo unspecified) | inactive: -7.73% | –
O=C(NCc1ccc(Cl)cc1)C(=O)NCC(c1ccc2c(c1)OCO2)N1CCOCC1 (stereo unspecified) | inactive: -16.3% | –
COc1cc2ccccc2cc1C(=O)N1CCN(c2nc3c(F)cccc3s2)CC1 | inactive: -8.21% | –
CCCCc1nn2c(=O)cc(COC(=O)c3cccc(NC(=O)c4cccs4)c3)nc2s1 | inactive: -14.5% | –
O=C(c1ccccc1)N1CCC(c2nc3ccccc3o2)CC1 | inactive: -15.6% | –
CN1C(=O)Cc2cc(S(=O)(=O)CCC(=O)Nc3ccc(Cl)cc3)ccc21 | inactive: -12.9% | –
CC(=O)c1ccc(NC(=O)c2cc3c([nH]c2=O)CC(c2ccccc2)CC3=O)cc1 (stereo unspecified) | inactive: -19.1% | –
COc1ccc(OC)c(CNS(=O)(=O)c2cc(-c3onc(C)c3C)ccc2C)c1 | inactive: -17% | –
Cc1cc(F)ccc1NC(=O)CCS(=O)(=O)c1cc2c3c(c1)CCN3C(=O)CC2 | inactive: -4.78% | –
CCN(CC)C(=O)c1sc2c(c1C)c(=O)n(-c1ccc(C)c(C)c1)c(=O)n2CC(=O)Nc1ccc(OC)cc1OC | inactive: 0% | –
CCS(=O)(=O)N1CC(=O)N(c2cc(C)cc(C)c2)C(C)(C(=O)NC2CCCCC2)C1 (stereo unspecified) | inactive: 14.9% | –
Cc1cc(C)n2c(Nc3ccc4c(c3)OCCO4)c(-c3ccccc3)nc2n1 | inactive: -3.37% | –
COc1ccc(/C=C/C(=O)Nc2cc(-c3nc4ccccc4o3)ccc2OC)cc1 | inactive: 5.78% | –
CC(=O)c1ccc(NC(=O)CSc2nnc(-c3ccncc3)n2-c2ccccc2)cc1 | inactive: -11.9% | –
Cc1ccc(S(=O)(=O)c2[nH]c(-c3ccccc3)nc2SC(C)C(=O)O)cc1 (stereo unspecified) | inactive: -4.11% | –
COc1cc2ncnc(Nc3cccc(Br)c3)c2cc1OC | inactive: -20.8% | –
COc1ccc(-n2c(SC)nc3sc4c(c3c2=O)CCN(C(C)=O)C4)cc1 | inactive: -5.78% | –
c1ccc(-c2ccc(C(c3ccccc3)n3ccnc3)cc2)cc1 (stereo unspecified) | inactive: -20.4% | –
Cc1ccn2c(=O)cc(COc3ccc(NC(=O)C(C)(C)C)cc3)nc2c1 | inactive: -7.51% | –
COC(=O)c1ccccc1NC(=O)CSc1n[nH]c(C)n1 | inactive: -8.92% | –

SMILES | activity change, negative = inhibition | Potency
CC(C)Oc1ccc(CNC(=O)CN2C(=O)c3cccnc3Oc3ccc(Cl)cc32)cc1 | inactive: -23.8% | –
CCS(=O)(=O)N1CCc2cc(C(=O)NC(C)c3ccccc3)ccc21 (stereo unspecified) | inactive: -15.3% | –
O=c1c2sc3ccccc3c2n(Cc2cccc(C(F)(F)F)c2)c(=O)n1-c1ccccc1 | inactive: -23.2% | –
CCCCCn1c(=N)c(S(=O)(=O)c2ccc(C)cc2)cc2c(=O)n3cc(C)ccc3nc21 | inactive: 5.39% | –
CC(C)(CC(=O)NCc1ccc(Cl)cc1Cl)CC1=NS(=O)(=O)c2ccccc2N1 | – | active: 20 µM
COC(=O)c1ccc(NS(=O)(=O)c2ccc3c(c2)n(C)c(=O)c(=O)n3C)cc1 | inactive: -4.52% | –
Cn1c2c(c(=O)n(C)c1=O)C(c1ccccc1C(F)(F)F)CC(=O)N2 (stereo unspecified) | inactive: -13.9% | –
CCOC(=O)c1ccc(CN(Cc2ccc(F)cc2)S(=O)(=O)c2ccc(F)c(C(=O)Nc3ccccc3C(F)(F)F)c2)cc1 | inactive: -23.4% | –
CCNC(=O)CC1C(=O)N(c2ccc(F)cc2)C(=O)N1Cc1ccc(OC)c(OC)c1 (stereo unspecified) | inactive: -7.55% | –
CCc1ccccc1N(CC)C(=O)C(=O)Nc1ccc2nc3n(c(=O)c2c1)CCCCC3 | inactive: -10.2% | –
O=S(=O)(c1ccc2ccccc2c1)n1nc(-c2ccco2)nc1NCc1ccc(F)cc1 | inactive: -3.58% | –
Cc1cc(C)cc(C(=O)N(Cc2nc(-c3ccc(Cl)cc3)no2)C(C)C)c1 | inactive: -13.9% | –
COCCNC(=O)C(=O)NCC(c1ccc2c(c1)OCO2)N1CCOCC1 (stereo unspecified) | inactive: -7.55% | –
COC(=O)c1ccc(OCC(O)Cn2cnc3cc(C)c(C)cc32)cc1 (stereo unspecified) | inactive: -11.7% | –
Cc1ccc(C(=O)Nc2ccc(-c3nc4ccccc4s3)c(O)c2)c(C)c1 | inactive: 54.5% | –
COCCCNC(=O)c1c(NC(=O)c2nc(S(C)(=O)=O)ncc2Cl)sc2c1CCCC2 | inactive: -2.74% | –
CCCCN(C)CCNC(=O)c1cc(=O)[nH]c2ccc(S(=O)(=O)N3CCCCCC3)cc12 | inactive: -12% | –
Cc1cc(NC(=O)c2ccc(-c3ccc(Cl)cc3)o2)cc(-c2nc3ncccc3o2)c1O | inactive: -9.1% | –
Cc1ccc(CNC(=O)c2cnc(N(C)C)nc2)cc1 | inactive: -4.3% | –

Source: PubChem BioAssay AID1508623 (National Center for Advancing Translational Sciences (NCATS), 2021)
